Results from ChEMBL document CHEMBL4888484, “Replenishing the malaria drug discovery pipeline: Screening and hit evaluation of the MMV Hit Generation Library 1 (HGL1) against asexual blood stage Plasmodium falciparum ,using a nano luciferase reporter read-out” (2022).
Hit rate of the full screen: of about 150,000 compounds, about 540 (0.36%) showed an effect of 50% or more. Some of the results follow.

Each molecule was assayed on Plasmodium falciparum (assay: Primary screen in NF54 nanoGlo assay, in single point, at 2uM, 72h; a lower Z score goes with more inhibition). Conditions: timepoint 72 hour.
Format: functional, Erythrocyte
With `CC1CN(C(=O)c2cc3ccc(C(C)(C)C)cc3[nH]2)CC2(CCOC2C)O1` (centres undefined) the “% Inhibition” value was -1% and the Z score was 0.11. In the case of `Cc1nnc(CN(CCN2CCOC[C@@H]2C)C(C)(C)C)o1`, the “% Inhibition” value is reported as 1% and the Z score is reported as -0.06. `C[C@@H](c1ccccn1)N(Cc1ccccc1)C(=O)c1cccnc1` was tested, and the “% Inhibition” value was -13% and the Z score was 2.03. In the case of `CCc1onc(C)c1CNC(=O)Nc1ccn2cc(C)nc2c1`, the “% Inhibition” value is reported as -9% and the Z score is reported as 1.27. In the case of `CCC(CC)C1CC(NC(=O)N[C@@H]2COC(=O)C2)CCO1` (some centres undefined), the “% Inhibition” value is reported as 0% and the Z score is reported as 0.09. In the case of `CCCCn1c(C)c(C)c(S(=O)(=O)c2ccc(OC)cc2)c1NC(=O)c1ccco1`, the “% Inhibition” value is reported as -5% and the Z score is reported as 0.68. `CC(C)(C)OC(=O)N1CCC(COc2nc3ccccc3s2)CC1` was tested, and the “% Inhibition” value was -16% and the Z score was 1.81. `COc1ccc(OC)c(Cc2nnc(CCC(=O)N3C[C@H]4CCC[C@@H]3C4)o2)c1` was tested, and the “% Inhibition” value was 0% and the Z score was -0.04. In the case of `Cc1cccc2c(N[C@H]3CCCN(CCO)C3=O)ncnc12`, the “% Inhibition” value is reported as -11% and the Z score is reported as 1.69. `COc1ccc(C(=O)N2CCN=C2N2CCCC2)cc1` was tested, and the “% Inhibition” value was -7% and the Z score was 0.7. `C[C@@]12CN(C(=O)COC3CCCC3)C[C@@H]1CN(c1nc3ccccc3o1)C2` was tested, and the “% Inhibition” value was -14% and the Z score was 2.11. For `c1ccc(OCCNCc2ccncc2)nc1`, the “% Inhibition” value was 34% and the Z score was -3.85. For `C=C(C)Cn1c([C@H]2CCS(=O)(=O)C2)nnc1N1CCC(Nc2cccc(C)c2)CC1`, the “% Inhibition” value was -6% and the Z score was 0.56. With `CC(CO)NC(c1ccc(Br)cc1)C1CCCO1` (centres undefined) the “% Inhibition” value was -4% and the Z score was 0.37. `CC(C)OCCCNc1nnc(C(C)(C)C)o1` was tested, and the “% Inhibition” value was -1% and the Z score was 0.19. In the case of `Cn1c(=O)c(CN2CCOCC2)nc2cc(F)ccc21`, the “% Inhibition” value is reported as -1% and the Z score is reported as 0.14. `Nc1nc(CCC(=O)N2C[C@@H]3CC[C@H]2CN(Cc2ccccn2)C3)cs1` was tested, and the “% Inhibition” value was -2% and the Z score was 0.4. For `C[C@@H](C(=O)NC1(C(=O)O)CCCC1)c1cccs1`, the “% Inhibition” value was 0% and the Z score was -0.02. For `COC(=O)CN(CC(C)C)c1ccnc(C(C)(C)C)n1`, the “% Inhibition” value was 2% and the Z score was -0.24. `O=C(CCc1ccc(S(=O)(=O)N2CCCC2)cc1)N1CCCC1` was tested, and the “% Inhibition” value was -20% and the Z score was 2.6. With `CCOC(=O)[C@H](Cc1ccncc1)NC(=O)c1cc(C)sn1` the “% Inhibition” value was -3% and the Z score was 0.45. In the case of `Cc1ccnc(CNC2CCN(c3ccccc3C)CC2)c1`, the “% Inhibition” value is reported as 14% and the Z score is reported as -1.83. For `CNCc1nc(-c2ccco2)nn1CC(C)(C)O`, the “% Inhibition” value was -6% and the Z score was 0.95. In the case of `CNc1cc(N2CCC(c3nnc(Cn4cncn4)n3C)CC2)nc(N)n1`, the “% Inhibition” value is reported as -17% and the Z score is reported as 2.11. `CC1(C(=O)N2CCCN(Cc3ccccc3)CCOCC2)COC1` was tested, and the “% Inhibition” value was -2% and the Z score was 0.43. `CCOc1ccccc1CNC(=O)c1ccc(-c2ccsc2)nc1` was tested, and the “% Inhibition” value was -15% and the Z score was 2.02. For `C#CCN(CCC)C(=O)c1ccncc1Cl`, the “% Inhibition” value was -11% and the Z score was 1.37. With `CC(NC1c2ccccc2CCC1(C)C)c1nccn1C` (centres undefined) the “% Inhibition” value was -8% and the Z score was 0.86. In the case of `Cn1c(C(C)(C)NC(=O)CN2CCC(CO)CC2)nc2ccccc21`, the “% Inhibition” value is reported as -5% and the Z score is reported as 1.08. `CC[C@H]1CCc2sc(C(=O)N(C)Cc3cccnc3)cc2C1` was tested, and the “% Inhibition” value was -1% and the Z score was 0.18. With `O=C(CCN1CCC([C@H](O)c2cccs2)CC1)N1CCc2ccccc2C1` the “% Inhibition” value was 1% and the Z score was -0.21. `Cc1cc(C(=O)N2CCCN(c3ccc(F)c(F)c3)CC2)no1` was tested, and the “% Inhibition” value was 3% and the Z score was -0.49. For `CCn1cc(-c2nc(C)c(C(=O)Nc3cc(F)cc(F)c3)s2)c2cccnc21`, the “% Inhibition” value was -6% and the Z score was 1. For `Cc1nc(Cn2cccnc2=O)n(-c2ccc(Cl)cc2)n1`, the “% Inhibition” value was -12% and the Z score was 1.65. `CCc1n[nH]c(=O)c(C(=O)N2CCCCCCC2)c1CC` was tested, and the “% Inhibition” value was 25% and the Z score was -2.83. `O=C(NCc1ccnc(-c2cccs2)c1)Nc1ccccc1C(F)(F)F` was tested, and the “% Inhibition” value was 5% and the Z score was -0.71. In the case of `Nc1nnc(CNC(=O)[C@H]2CC23CCCCC3)s1`, the “% Inhibition” value is reported as -2% and the Z score is reported as 0.37. For `COCCNC(=O)NC(=O)COc1c(C)cc(Br)cc1Cl`, the “% Inhibition” value was -12% and the Z score was 2.14. `Nc1ccc(N2CCN(c3nc(C4CCCCC4)ns3)CC2)cn1` was tested, and the “% Inhibition” value was 1% and the Z score was -0.11. `CCNC(=O)c1cccc(N2CCCN(Cc3cccc(C)c3)C2=O)c1` was tested, and the “% Inhibition” value was -2% and the Z score was 0.36. With `Fc1cccc(C[n+]2csc3ccccc32)c1` the “% Inhibition” value was -31% and the Z score was 6.04. With `CC(C)[C@@H](NC(=O)c1ccc(Cl)s1)C(=O)O` the “% Inhibition” value was 7% and the Z score was -0.79. For `N[C@H]1CCCN(C(=O)NCCc2cccc(Cl)c2)C1`, the “% Inhibition” value was 1% and the Z score was -0.13. With `O=C(COc1ccccc1)Nc1ccc2ncnc(N3CCCCC3)c2c1` the “% Inhibition” value was 0% and the Z score was 0.07. For `Cc1ncsc1CNC(=O)NCCOc1ccc(Cl)cn1`, the “% Inhibition” value was -12% and the Z score was 2.23. For `Cc1ccc(OCCOCCN(C)Cc2ccccc2)cc1C`, the “% Inhibition” value was 5% and the Z score was -0.73. With `Cc1nc(CCCNS(=O)(=O)c2cncc(Cl)c2)n[nH]1` the “% Inhibition” value was -7% and the Z score was 0.73. `CC1CCN(c2nc3c(c(N(C)C)n2)CNCC3)CC1` was tested, and the “% Inhibition” value was 13% and the Z score was -2.16. `NC(=O)c1ccc(C(F)(F)F)nc1N1CCOC[C@@H](O)C1` was tested, and the “% Inhibition” value was 6% and the Z score was -0.85. `CC(C)CC1(CNC(=O)C2(C#N)CCC2)CCC1` was tested, and the “% Inhibition” value was 27% and the Z score was -3.06. In the case of `O=C(Nc1ccccc1)OC1CCCC(NC(=O)c2ccc3c(c2)OCO3)C1` (centres undefined), the “% Inhibition” value is reported as 0% and the Z score is reported as -0.07. `COc1ccc(OCC2CCN(C(=O)c3cnc(O)cn3)CC2)cc1` was tested, and the “% Inhibition” value was 7% and the Z score was -0.97. In the case of `COc1cc([C@H](C)NC2CC(c3cc(F)cc(F)c3)C2)ccn1` (some centres undefined), the “% Inhibition” value is reported as -33% and the Z score is reported as 3.87. For `COCC(=O)N1CCN(C2=Nc3ccccc3Oc3c(OC)cccc32)C[C@@H]1C`, the “% Inhibition” value was 2% and the Z score was -0.23. For `COC(=O)c1ccc2c(c1)CC[C@H](NC(=O)OCC1CC1)C(=O)N2`, the “% Inhibition” value was -13% and the Z score was 2.06. With `N#CC1(C(=O)N2CCc3[nH]cnc3C2)CCOCC1` the “% Inhibition” value was 0% and the Z score was -0.09. `Cc1ncsc1CCN1Cc2ccccc2C2(CCC2)C1` was tested, and the “% Inhibition” value was 4% and the Z score was -0.49. For `O=C(c1ccco1)N1CCN(Cc2ccncc2)CC1`, the “% Inhibition” value was 7% and the Z score was -0.91. In the case of `COCCN1C[C@@H](CNc2nccnc2OC)CC1=O`, the “% Inhibition” value is reported as 3% and the Z score is reported as -0.63. With `CN(CCN1CCCC1=O)C(=O)NCc1ccco1` the “% Inhibition” value was -21% and the Z score was 2.78. For `CCOc1cccc(Cc2noc([C@]3(O)CCCN(C(C)=O)C3)n2)n1`, the “% Inhibition” value was 9% and the Z score was -1.62. For `CN(CC1CCCCO1)C1CCCC1S(C)(=O)=O` (centres undefined), the “% Inhibition” value was 1% and the Z score was -0.08. With `CC(C)(C)c1nnc(CNC(=O)[C@@H]2CCc3cccnc32)s1` the “% Inhibition” value was -3% and the Z score was 0.41. `COc1ccc(CN2C(=O)[C@@H]3Cc4c([nH]c5ccccc45)C(C)(C)N3C2=O)cc1` was tested, and the “% Inhibition” value was -2% and the Z score was 0.27. In the case of `Cc1cc(O[C@H]2CCCN(C(=O)CN3CCN(c4ccccc4F)C3=O)C2)nc(C)n1`, the “% Inhibition” value is reported as 7% and the Z score is reported as -0.91. For `COc1ccc(-c2nc(N3CCN(CCO)CC3)[nH]c(=O)c2C#N)cc1`, the “% Inhibition” value was -17% and the Z score was 1.54. `CCCCCS(=O)(=O)NCc1ccc(C#N)cc1F` was tested, and the “% Inhibition” value was 30% and the Z score was -3.44. For `CCn1cc(C(=O)N2CCC[C@H](c3[nH]ncc3-c3ccc(C)cc3)C2)c(C)n1`, the “% Inhibition” value was 1% and the Z score was -0.17. With `O=C(NCCCN1CCOCC1)c1cnc2c(Cl)cccc2c1O` the “% Inhibition” value was 3% and the Z score was -0.48. For `CC(C)(C)OC(=O)C1C[C@H](CNC(=O)C2CCCC(=O)N2)[C@H](O)C1` (some centres undefined), the “% Inhibition” value was -1% and the Z score was 0.18. `CCC[C@@H](C(=O)O)n1ccc(NC(=O)c2ccc3c(c2)CCOC3)n1` was tested, and the “% Inhibition” value was -5% and the Z score was 0.59. With `CCOC(=O)N(C)c1ccc(NC(=O)N2CCC[C@H](n3nccc3C(F)(F)F)C2)cc1` the “% Inhibition” value was -8% and the Z score was 0.72. In the case of `Cc1ccc(C2CC(=O)N(Cc3ccc4c(c3)OCO4)C(=O)C2)cc1`, the “% Inhibition” value is reported as -8% and the Z score is reported as 0.93. In the case of `Cc1nc(N2CCOCC2)nc2c1CCC2`, the “% Inhibition” value is reported as -2% and the Z score is reported as 0.27. `CCn1ccc2cc(CCC(=O)N3CCN(CC(C)C)CC3)ccc21` was tested, and the “% Inhibition” value was -6% and the Z score was 0.63. `COc1cc2nc(-c3cccnc3)n(-c3cc(C(C)(C)C)c(O)c(C(C)(C)C)c3)c2cc1OC` was tested, and the “% Inhibition” value was 1% and the Z score was -0.18. `CCN1CCCn2ccnc2[C@@H]1C1CCN(Cc2ccccc2)CC1` was tested, and the “% Inhibition” value was -2% and the Z score was 0.34. With `COc1cccc(C(=O)NC[C@H](OC)c2cc3ccccc3o2)c1` the “% Inhibition” value was -9% and the Z score was 1.03. For `CN(C)C(=O)[C@@]12CN(Cc3ccccn3)C[C@@H]1CN(C(=O)c1ccccc1)C2`, the “% Inhibition” value was -13% and the Z score was 1.76. With `O=S(=O)(NCC1(C2CC2)CCC1)[C@H]1CCOC1` the “% Inhibition” value was -11% and the Z score was 2.06. For `O=C(CCn1cnccc1=O)NC[C@@]12CCC[C@@H]1OCC2`, the “% Inhibition” value was -10% and the Z score was 1.24. With `Fc1ccc(-c2nnc3n2C[C@@H](NCc2cccnc2)CC3)cc1` the “% Inhibition” value was 3% and the Z score was -0.38. `Cc1ncc(CN2CCC[C@H](S(=O)(=O)NC3CCCC3)C2)s1` was tested, and the “% Inhibition” value was 1% and the Z score was -0.18. `O=C(NCCc1c[nH]cn1)c1cccc(NCc2cccs2)c1` was tested, and the “% Inhibition” value was -8% and the Z score was 0.98. For `O=C1OC2(c3ccccc31)C(c1ccccc1)CC(=O)N2Cc1ccccc1` (centres undefined), the “% Inhibition” value was 34% and the Z score was -4.38. For `Cc1ccc(CN2CC[C@H](c3noc(-c4ccccn4)n3)C2)o1`, the “% Inhibition” value was -10% and the Z score was 1.43. For `CCN(CC)C(=O)Nc1ccc(-c2c(C)nn(CC(N)=O)c2C)cc1`, the “% Inhibition” value was 1% and the Z score was -0.2.
